Data reported in ChEMBL document CHEMBL4888484, “Replenishing the malaria drug discovery pipeline: Screening and hit evaluation of the MMV Hit Generation Library 1 (HGL1) against asexual blood stage Plasmodium falciparum ,using a nano luciferase reporter read-out” (2022).
Out of some 150,000 compounds screened, about 540 (0.36%) showed an effect of 50% or more. This is one part of the list.

The compounds below were run on Plasmodium falciparum (assay: Primary screen in NF54 nanoGlo assay, in single point, at 2uM, 72h; a lower Z score goes with more inhibition). Conditions: timepoint 72 hour.
Type: functional, Erythrocyte

| Compound | % Inhibition | Z score |
| --- | --- | --- |
| CCCc1cc(=O)n(-c2ccc(C(=O)N3CC[C@H](N)C3)cc2)[nH]1 | -4% | 0.74 |
| CC(C)S(=O)(=O)CCCn1cnc(C(C)(C)C)n1 | -2% | 0.22 |
| CN=C(NC)NCc1cc2c(s1)CCC(C)(C)C2 | 5% | -0.74 |
| O=C(CC1(O)CCCCC1)NCCc1ccc(C(F)(F)F)cn1 | 0% | 0.01 |
| Cc1ccc(NC(=O)[C@H](Cc2ccccc2)NS(=O)(=O)c2ccc3c(c2)c(=O)n(C)c(=O)n3C)cc1C | -1% | 0.12 |
| O=C(NCc1ccccc1)C(F)(F)F | -2% | 0.24 |
| CCOc1ccc2nc(NC(=O)c3cnc(OC4CCOCC4)c(Cl)c3)sc2c1 | -1% | 0.21 |
| O=C(N[C@H]1C[C@H]2OCC[C@@H]12)c1ccccc1N1CCS(=O)(=O)CC1 | 12% | -2.27 |
| O=c1[nH]c(=O)n(Cc2cc(Cl)c3c(c2)OCCCO3)cc1Cl | -10% | 1.92 |
| CC(=O)c1cnc(NCc2nc3cc(F)ccc3[nH]2)nc1C | -7% | 1.26 |
| C[C@@H](CCc1ccccc1)NC1CCC(O)CC1 (stereo partly specified) | -18% | 3.3 |
| Cc1nn(C(C)C)c(=O)n1Cc1ccc(S(C)(=O)=O)cc1 | -2% | 0.44 |
| Cc1cc(-c2nc(-c3ccc(Br)o3)no2)no1 | 28% | -3.22 |
| CS(=O)(=O)N[C@@H]1CC[C@H]2CCOc3ccccc3C(=O)N3CCN(C4CCCC4)C[C@H]3C(=O)NC[C@H]1O2 | 2% | -0.26 |
| Cc1cc(C(=O)N2CC[C@@]3(CCCN(CC4CC4)C3=O)C2)c2c(C)noc2n1 | -15% | 3.25 |
| CN(Cc1ccccc1)CC(C)(C)NC(=O)NC1CCC(O)CC1 (stereo unspecified) | -15% | 2.32 |
| CCN1CCN(C[C@@H]2CN(c3cnc4ccccc4n3)C[C@@H]2CO)CC1 | -6% | 1.07 |
| COc1c(C)cc(CNC[C@H]2CC[C@@H](CO)O2)cc1C | -11% | 1.25 |
| CCN1CC2(CCN(C(=O)c3ccn(C)n3)CC2)C[C@@H](c2ccccc2)C1=O | -14% | 1.64 |
| CC(C)n1nnc2cc(S(=O)(=O)N3CCC[C@H](C(=O)NCCc4c[nH]c5ccccc45)C3)ccc21 | -19% | 1.68 |
| C[C@@H](Cc1cccnc1)NC(=O)c1coc(COc2ccccc2)n1 | -1% | 0.1 |
| O=C(NCc1ccco1)NCC1(c2ccccc2)CC1 | -15% | 1.71 |
| CC1(C)C[C@@H](CN2CCC(Oc3cc(Cl)ccc3C(=O)N3CCCCC3)CC2)CCO1 | -6% | 0.85 |
| COc1cc(Cl)ccc1C(=O)N1CCC2(CC1)CN(C)C[C@@H]2c1nnc(C(C)C)o1 | -4% | 0.71 |
| CC[C@H]1COCCN1S(=O)(=O)c1c(C)nn(C)c1C | -11% | 1.73 |
| Cc1ccccc1NC(=O)Cn1c(=O)n(Cc2ccc3c(c2)OCO3)c(=O)c2sccc21 | 8% | -1.12 |
| CN1CC[C@@H](c2nc(-c3cc(OC(F)F)ccc3F)no2)S1(=O)=O | 0% | -0.03 |

| Compound | % Inhibition | Z score |
| --- | --- | --- |
| COC(=O)c1csc(NC(=O)C2CCN(c3cc4c(nn3)CCC4)CC2)n1 | 7% | -0.92 |
| O=C(NCCN1CCOCC1)c1nc(-n2cnnc2)ccc1Br | -4% | 0.55 |
| Cc1cnc(C(=O)Nn2cnc3ccccc3c2=O)cn1 | -7% | 0.96 |
| O=C(NCc1nc2c(s1)COCC2)Nc1cc2cc[nH]c2cn1 | -8% | 0.93 |
| O=C(NC1CCC(CC2CCC(NC(=O)C3CC3c3ccccc3)CC2)CC1)C1CC1c1ccccc1 (stereo unspecified) | -15% | 1.85 |
| COCCNC(=O)N1CC(=O)N(Cc2ccccc2)C1 | -13% | 1.22 |
| COc1ccc(C)cc1S(=O)(=O)N(C)c1cnn(C)c1 | -5% | 0.68 |
| COCC(C)(C#N)NC(=O)C1Cc2ccccc21 (stereo unspecified) | 2% | -0.32 |
| CC(C)Nc1ncc(Br)c(C(=O)N2CC[C@H](F)C2)n1 | 7% | -0.91 |
| Cn1c(CNC(=O)C2(C)CC3CCC2O3)nnc1C1CC1 (stereo unspecified) | -6% | 0.87 |
| COc1cccc(N2CCN(C(=O)NCc3ccoc3)CC2(C)C)c1 | 0% | -0.01 |
| Cc1nnc(C(=O)N2CCC[C@H](S(=O)(=O)NC3CCCC3)C2)s1 | -13% | 1.87 |
| O=C(Cc1cccnc1)N1CCC([C@H]2c3[nH]cnc3CCN2C(=O)Cc2ccccc2)CC1 | -10% | 1.51 |
| Cn1cccc1C(=O)N[C@H]1CCc2cncn2C1 | -14% | 1.82 |
| Cc1cc(CS(=O)(=O)Cc2c(Cl)cccc2Cl)no1 | -16% | 2.13 |
| CCCOc1ccc(-c2ccc(-c3nc(-c4ccc(C)cc4)no3)cc2)cc1F | -4% | 0.46 |
| C[C@H]1CCc2sc(C(=O)N3CCc4nc(N)sc4C3)cc2C1 | -1% | 0.11 |
| Cc1ncccc1CN1C[C@H](CCN2CCCC2=O)c2ccccc21 | -1% | 0.13 |
| CC(C)(C)OC(=O)NC1CCC2CN(C(=O)c3ccc[nH]3)CC21 (stereo unspecified) | -5% | 0.69 |
| C[C@H]1CCCN(C(=O)c2cnc(O)c3ncccc23)C1 | -19% | 2 |
| Cc1cc(C(=O)NCCN2CCOCC2)on1 | -4% | 0.69 |
| COc1cc(Cl)c(C)cc1NC(=O)Cn1cnc2nc(N3CCCCC3)sc2c1=O | -1% | 0.19 |
| Cc1cc(=O)[nH]c(CCNC(=O)Nc2ccc3[nH]c(C(C)C)nc3c2)n1 | -5% | 0.78 |
| CC(NC(=O)CCC1CCCCO1)C1(N2CCOCC2)CCCC1 (stereo unspecified) | -3% | 0.39 |
| Cc1cc(-c2noc(C3CC4(CC4)C3)n2)cc(C)c1CS(N)(=O)=O | 1% | -0.18 |
| CC(C)CCN1C[C@]2(CCCN(C(=O)c3ccc(O)c(Cl)c3)C2)CCC1=O | -13% | 1.22 |
